This test concerns the target T1, HiBiT-GCase-L444P (Homo sapiens, UniProt P04062, L483P).
T1 sequence (P04062 40-536 L483P): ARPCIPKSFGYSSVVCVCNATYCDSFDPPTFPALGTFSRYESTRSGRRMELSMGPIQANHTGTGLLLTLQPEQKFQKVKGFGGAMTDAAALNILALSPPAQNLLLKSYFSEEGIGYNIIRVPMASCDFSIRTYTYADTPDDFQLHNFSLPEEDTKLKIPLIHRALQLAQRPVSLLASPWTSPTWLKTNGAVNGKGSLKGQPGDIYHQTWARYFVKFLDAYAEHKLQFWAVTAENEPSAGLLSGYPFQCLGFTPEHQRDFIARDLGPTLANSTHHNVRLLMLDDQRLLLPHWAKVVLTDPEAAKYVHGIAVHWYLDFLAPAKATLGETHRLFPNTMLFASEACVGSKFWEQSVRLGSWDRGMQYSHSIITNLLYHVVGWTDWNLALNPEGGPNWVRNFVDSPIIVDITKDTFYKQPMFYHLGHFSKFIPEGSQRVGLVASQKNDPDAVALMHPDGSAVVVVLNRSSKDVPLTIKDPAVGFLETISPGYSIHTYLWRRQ
Details: AUC: unit not given beside the values. To be noted: follow-up screen, 24 h; for CC-v2: qHTS curve class; for Efficacy: relative to DMSO control.

Where a name gives a salt, the structure may show the parent alone. Read-outs that look alike come from different tables or passages of the source.

Take `CCOC(=O)Nc1cc(-c2ccc(C)c(NS(C)(=O)=O)c2)nn2c(C)nnc12` [NCGC00351471-11, Bromosporine]: half-maximal activity (AC50) was put at 4.2 µM, the AUC came out at 169.0 and the CC-v2 was determined as 1.1.
Compound `C/C=C(\C)C(=O)OC1C(C)C2(O)C(C=C(CO)CC3(O)C(=O)C(C)=CC32)C2C(C)(C)C12OC(C)=O` (centres unmarked) [NCGC00385645-01] came in with a concentration at half-maximal activity (AC50) of 0.183 µM, an AUC of 203.0, an Efficacy of 70 and a CC-v2 of 1.2.
`C1CCC(C(CC2CCCCN2)C2CCCCC2)CC1` (centres unmarked) [NCGC00018261-06, Perhexiline] gave an AC50 of 63.1 µM, an AUC of -45.8 and a CC-v2 of 1.1.
Take `CCCCCOC1CCC(NC(=O)c2cnn3c(C)cc(C)nc23)CC1` (centres unmarked) [NCGC00532316-03, LTI-291]: the activity was half-maximal at 89.1 µM (AC50), the AUC was -9.7, the Efficacy is listed as 55 and the CC-v2 is listed as 1.2.
`N#Cc1ccc(NC(=O)CNC(=O)c2ccccc2OCC(=O)Nc2ccc(I)cc2)cc1` [NCGC00241608-01] showed an AC50 of 50.1 µM, an AUC of 63.7, an Efficacy of 115 and a CC-v2 of 1.1.
In turn, `O=C(/C=C/c1ccc(CN(CCO)CCc2c[nH]c3ccccc23)cc1)NO` [NCGC00345539-07, Dacinostat] displayed an AC50 of 0.168 µM, an AUC of 1068.3 and a CC-v2 of 1.1.
In the same order, the values of `Nc1ccccc1NC(=O)c1ccc(CNc2nccc(-c3cccnc3)n2)cc1` [NCGC00263182-09, Mocetinostat] are 1.1 µM, 270.1 and 1.1.
In the case of `C=Cc1cc(O)cc2nc(-c3ccc(O)c(F)c3)oc12` [NCGC00370919-02, Prinaberel], the AC50 stood at 29.8 µM, the AUC was found to be 4.3 and the CC-v2 is reported as 1.2.
`Cn1cc(CNCC2CCN(c3ncc(C(=O)NO)cn3)CC2)c2ccccc21` [NCGC00346487-04, Quisinostat] registered an AC50 of 0.0335 µM, an AUC of 1450.8 and a CC-v2 of 1.1.
On to `CC(/C=C/C(=O)NO)=C\[C@@H](C)C(=O)c1ccc(N(C)C)cc1` [NCGC00162453-18, Trichostatin A], for which half-maximal activity (AC50) was put at 1.9 µM, the AUC is reported as 599.3, the Efficacy came out at 425 and the CC-v2 is recorded as 1.1. For the same compound, for the setting “listed as NCGC00162453-15”, the AC50 turned out to be 0.749 µM, the AUC stood at 637.2 and the Efficacy was 353.
For `O=C(NC1CCC1)c1ccc(C#Cc2cccc(F)c2)nc1` [NCGC00379106-01, VU 0360172 hydrochloride], the AC50 is 10.6 µM, the AUC stood at 31.2, the Efficacy stood at 47 and the CC-v2 is given as 1.2.
In the same order, the values of `C=C(C)C1Cc2c(ccc3c2OCC(c2ccc(O)cc2O)C3)O1` (centres unmarked) [NCGC00347653-02] are 29.2 µM, 56.9, 70 and 1.2.
In turn, `CC(C)(C)c1nc(-c2cccc(NS(=O)(=O)c3c(F)cccc3F)c2F)c(-c2ccnc(N)n2)s1` [NCGC00346716-06, Dabrafenib] displayed an AC50 of 13.3 µM, an AUC of 41.2 and a CC-v2 of 1.1.
The compound `CC(C)C[C@H](NC(=O)CNC(=O)c1cc(Cl)ccc1Cl)B(O)O` [NCGC00249611-04, Ixazomib] yielded an AC50 of 0.447 µM, an AUC of 505.2 and a CC-v2 of 1.1.
Compound `COc1ccc(CNC(=O)c2ccccc2OCC(=O)Nc2ccc(I)cc2)cc1` [NCGC00241320-01] showed an AC50 of 39.8 µM, an AUC of 6.8, an Efficacy of 50 and a CC-v2 of 2.2.
Take `C[C@]12CC[C@H](O)CC1=CC[C@@H]1C2CC[C@]2(C)[C@@H](C3=CC(=O)OC3)CC[C@]12O` (some centres unmarked) [NCGC00347770-02]: the activity was half-maximal at 2.6 µM (AC50), the AUC was found to be 138.1, the Efficacy came to 147 and the CC-v2 is 1.1.
On to `CN(C)c1ccc(CNC(=O)c2ccccc2OCC(=O)Nc2ccc(I)cc2)cc1` [NCGC00241321-01], for which the AC50 was found to be 50.1 µM, the AUC stood at 56.5, the Efficacy is listed as 48 and the CC-v2 is on record as 2.2.
In the case of `COc1ccccc1N1CCN(CC(O)COc2cccc3ccccc23)CC1` (centres unmarked) [NCGC00015718-17, Naftopidil], the AC50 is 47.3 µM, the AUC was determined as 25.5 and the CC-v2 is reported as 1.1.
As for `O=C(NO)c1cnc(NC2(c3cccc(F)c3)CCCCC2)nc1` [NCGC00531749-01, ACY-775], the AC50 is 8.4 µM, the AUC was 19.4, the Efficacy is 41 and the CC-v2 was 1.2.
As for `CC(=O)Nc1ccc(C(=O)Nc2ccccc2N)cc1` [NCGC00263639-09, Tacedinaline], half-maximal activity (AC50) was put at 9.4 µM, the AUC is 306.8 and the CC-v2 amounted to 1.1.
The corresponding values for `Nc1cc(F)ccc1NC(=O)c1ccc(CNC(=O)/C=C/c2cccnc2)cc1` [NCGC00263598-11, Chidamide] are 5.3 µM, 441.1 and 1.1.
Turning to `C/C=C(\C)C(=O)OC1C(C)C2(O)C3C=C(C)C(=O)C3CC(CO)=CC2C2C(C)(C)C12OC(C)=O` (centres unmarked) [NCGC00380717-01], half-maximal activity (AC50) was put at 0.146 µM, the AUC was 104.6, the Efficacy is listed as 76 and the CC-v2 was determined as 1.2.
Compound `CO[C@H]1[C@@H](O)[C@H](O[C@H]2CC[C@@]3(C)C(CCC4C3CC[C@]35COC6(COC(=O)C6)C3CCC45O)C2)O[C@@H](C)[C@@H]1OC1OC(CO)C(OC2OC(CO)C(O)C(O)C2O)C(O)C1O` (some centres unmarked) [NCGC00381292-01] came in with an AC50 of 4.5 µM, an AUC of 238.6, an Efficacy of 306 and a CC-v2 of 2.1.
In the same order, the values of `O=c1oc(-c2ccc(C(F)(F)F)cc2)nn1Cc1cc(Cl)ccc1O` [NCGC00167822-02, BMS 191011] are 59.5 µM, 31.7, 108 and 2.1.
With `Cn1nccc1Nc1nccc(-c2ccn([C@H](CO)c3ccc(Cl)c(F)c3)c(=O)c2)n1` [NCGC00386401-02, Ravoxertinib], the activity was half-maximal at 29.8 µM (AC50), the AUC is 43.0 and the CC-v2 was determined as 1.1.
In the case of `Cc1ccc(NC(=O)CCCCCC(=O)Nc2ccccc2N)cc1` [NCGC00263602-04, TC-H 106], the AC50 is 16.8 µM, the AUC amounted to 167.1, the Efficacy is listed as 268 and the CC-v2 stood at 1.1.
The corresponding values for `CC1CCC2C(=CCC(O)C2(C)C)C1(C)Cc1c(O)cc(CO)c(C=O)c1O` (centres unmarked) [NCGC00380764-01] are 8.2 µM, 40.6, 90 and 1.1.
The corresponding values for `COC1C(O)C(OC2CCC3(C)C(CCC45CCC6C7(COC(=O)C7)OC4(O)C6(C)CCC35)C2)OC(C)C1OC1OC(CO)C(OC2OC(CO)C(O)C(O)C2O)C(O)C1O` (centres unmarked) [NCGC00380855-01] are 8 µM, 104.1, 174 and 1.1.
In turn, `O=C(CCc1ccc(CN[C@H](C(=O)OC2CCCC2)C2CCCCC2)cn1)NO` [NCGC00522525-01, HDAC-IN-3] registered an AC50 of 1.1 µM, an AUC of 837.5, an Efficacy of 475 and a CC-v2 of 1.1.
Compound `COC1CC(O[C@H]2CC[C@]3(C)C4CC[C@]5(C)[C@@H](C6=CC(=O)OC6)[C@@H](OC(C)=O)C[C@]5(O)C4CC[C@@H]3C2)OC(C)C1O[C@@H]1O[C@H](CO)[C@@H](O)[C@H](O)[C@H]1O` (some centres unmarked) [NCGC00385413-01] came in with an AC50 of 0.125 µM, an AUC of 75.1, an Efficacy of 45 and a CC-v2 of 1.4.
In the same order, the values of `CC(C)(C)c1ccc(NC(=O)CNC(=O)c2ccccc2OCC(=O)Nc2ccc(F)cc2)cc1` [NCGC00241593-01] are 50.1 µM, 105.1, 99 and 1.1.
On to `CN(C)Cc1ccc(S(=O)(=O)n2ccc(/C=C/C(=O)NO)c2)cc1` [NCGC00381559-02, Resminostat], for which the AC50 is 4.2 µM, the AUC worked out at 526.6 and the CC-v2 is 1.1.
In the same order, the values of `O=C(NO)c1cnc(NC2(c3ccccc3)CC2)nc1` [NCGC00511370-02, ACY-738] are 7.5 µM, 409.2 and 1.1.
The compound NKL 22 [NCGC00522469-01] had an AC50 of 14.9 µM, an AUC of 266.8, an Efficacy of 348 and a CC-v2 of 1.1.

The record behind these values is article PMC11494340, “High-throughput screening for small-molecule stabilizers of misfolded glucocerebrosidase in Gaucher disease and Parkinson’s disease” (Proceedings of the National Academy of Sciences of the …, 2024).
